Experimental data reported in PubChem BioAssay (NCI).
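These data come from cells grown in 96-well plates and exposed to compound for 48 hours at five concentrations. The concentration for 50% growth inhibition is given as GI50.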 The source holds more than one record for some entries. This is not the full list of results. There may be further records. For part of these data: The tests behind the records often covered other concentration ranges, not given here; a value can be the end of its range. For part of these data: The values listed for one entry are repeated measurements (runs, samples, wells, individuals or studies). Marks in square brackets tell the records apart. A, B and so on number the origins entry by entry.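 The concentration for full growth arrest is given as TGI.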

Experiments:
Test in all cases: NCI-60 cell line screen, 48 h
HOP-92 NSCLC = system: HOP-92 NSCLC
OVCAR-3 ovarian = system: OVCAR-3 ovarian
EKVX NSCLC = system: EKVX NSCLC
CAKI-1 renal = system: CAKI-1 renal
NCI-H522 lung = system: NCI-H522 lung
RPMI-8226 leukemia = system: RPMI-8226 leukemia
CCRF-CEM leukemia = system: CCRF-CEM leukemia
OVCAR-8 ovarian = system: OVCAR-8 ovarian
OVCAR-4 ovarian = system: OVCAR-4 ovarian
HL-60(TB) leukemia = system: HL-60(TB) leukemia
SNB-75 CNS = system: SNB-75 CNS
KM12 colon = system: KM12 colon

In the case of `C/C(=N\NC(=S)N1CCN(c2ccccn2)CC1)c1nccs1`, the TGI (HOP-92 NSCLC) is reported as 92.3 nM and 18.7 µM and the TGI (OVCAR-3 ovarian) is reported as 47.8 nM [1 test] and 18.3 µM [mean of 2 tests].

For `Cc1cnc(Nc2ccc(OCCN3CCCC3)cc2)nc1Nc1cccc(S(=O)(=O)NC(C)(C)C)c1`, the GI50 (EKVX NSCLC) was 82.7 nM [sample A, 1 test] and 2.16 µM [sample B, mean of 2 tests] and the TGI (CAKI-1 renal) was 382 nM [sample A, mean of 2 tests] and > 5.54 µM [sample B, mean of 2 tests].

With `COc1cc2ncnc3c2cc1OCCCCCN(C)Cc1ccc(Br)cc1N3` the TGI (NCI-H522 lung) was > 100 µM [sample A, 1 test] and 6.65 µM [sample B, 1 test].

In the case of `CCC1(OC(=O)CN)C(=O)OCc2c1cc1n(c2=O)Cc2cc3cc4c(cc3nc2-1)OCO4` (stereo not given), the TGI (RPMI-8226 leukemia) is reported as 523 nM and > 100 µM, the TGI (CCRF-CEM leukemia) is reported as 202 nM and 8.83 µM and the GI50 (OVCAR-8 ovarian) is reported as > 100 µM and < 10 nM. For the same compound, the TGI (OVCAR-8 ovarian) was > 100 µM and 380 nM, the GI50 (HOP-92 NSCLC) was 203 nM and < 10 nM and the TGI (HOP-92 NSCLC) was 16.5 µM and 345 nM. The TGI (OVCAR-4 ovarian) was 4.55 µM and 414 nM, the TGI (HL-60(TB) leukemia) was 183 nM and < 10 nM and the TGI (SNB-75 CNS) was 18.3 µM and < 10 nM. The TGI (KM12 colon) was 434 nM and > 100 µM.
